Data published in publication PMC12040169 (PLOS Biology, 2025).
This is one part of the list.

system: T1, C. trachomatis L2/434/Bu expressing GFP (CTL2-GFP); set-up: species or system HeLa; C. trachomatis total inclusion area by high-content imaging, normalised to DMSO; settings: total inclusion area; 28.5 h, 10 µM; inhibitor
T1 construct: L2/434/Bu GFP intracellular growth in HeLa cells
How it was run: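 High-content imaging followed the bulk GFP/resorufin measurement: fixed, Hoechst-stained cells were scored for GFP inclusions and host nuclei per well. Total inclusion area and count served as growth proxies, nuclei number as the viability proxy. MIC calculation matched the bulk assay.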

Row | Compound | % of control remaining
1 | c1cncc(-c2cncc(NCc3ccc4c(c3)OCO4)n2)c1 [CBK065313] | 118.253
2 | Cc1nn2c(O)c(CCO)c(C(=O)O)nc2c1-c1ccc(Cl)cc1 [CBK286699] | 98.2568
3 | CNc1nc2ccccc2n1CC(=O)c1ccccc1 [CBK262251B] | 78.0469
4 | CN(Cc1ccc(F)cc1F)C(=O)Cn1nc2n(c1=O)CCCCC2 [CBK304598] | 50.245
5 | O=C(Nc1ccccc1N1CCNCC1)C1(c2ccccc2)CCCCC1 [CBK028281T] | 68.6924
6 | CCOc1ccc(C(=O)Nc2ccc(S(=O)(=O)N3CCN(C)CC3)cc2)cc1 [CBK269959] | 82.2834
7 | O=C1CCCN1C(=O)CN1CCOCC1 [CBK261467] | 84.1168
8 | OC(CN1CCC(O)(Cn2cnc3ccccc32)CC1)c1ccc(-c2ccccc2)cc1 (centres unmarked) [CBK286437] | 54.812
9 | O=C(Nc1ccccc1C(F)(F)F)c1ccc(-n2cnnn2)cc1 [CBK300521] | 85.4991
10 | O=C(CNC(=O)OCc1ccncc1)NCC(CCCN1CCC(c2ccccc2)CC1)(c1ccccc1)c1ccccc1 [CBK024060A] | 70.8738
11 | Cc1ccc(S(=O)(=O)Nc2ccccn2)c(C)c1C [CBK264995] | 116.165
12 | N=c1c2c(-c3ccccc3)c(-c3ccccc3)oc2ncn1CCCN1CCOCC1 [CBK268484] | 102.619
13 | Cc1nc2c(OCCN3C(=O)c4ccccc4C3=O)cccn2c1N(C)C(=O)C1CCCCC1 [CBK147157] | 59.2432
14 | CS(=O)(=O)N1CC2(CCN(CCOCc3ccccc3)CC2)c2ccccc21 [CBK115458T] | 102.827
15 | O=C(c1c[nH]c2ccccc12)C(F)(F)C(F)(F)F [CBK007222] | 101.767
16 | O=C(CCS(=O)(=O)c1ccccc1)Nc1ccc(N2CCNCC2)c2ccccc12 [CBK028408T] | 88.4811
17 | CC(C)N(Cc1nc(-c2ccccc2)no1)C(=O)CCc1ccccc1 [CBK269867] | 88.0808
18 | Cc1cc(C(=O)N2CC[C@H]3NC(=O)c4ccccc4OCCCCC[C@H]3C2)no1 [CBK292005] | 84.4089
19 | Cc1noc(C)c1CC(=O)NCc1cccc(C#N)c1 [CBK305822] | 52.8738
20 | COc1cccc(C(=O)c2snc(Nc3ccc(F)cc3)c2N)c1 [CBK269173] | 78.5729
21 | Cn1nc(C2CCN(C(=O)c3cccs3)CC2)c2cccnc21 [CBK284925] | 95.6862
22 | Cc1cc(C)c(NC(=O)CSc2nc(C)c(Cc3ccccc3Cl)c(O)n2)c([N+](=O)[O-])c1 [CBK268693] | 116.761
23 | O=C(CN1CCOCC1)N1CCC(F)CC1 [CBK200383] | 96.2064
24 | NC(=O)C1CCN(C(=O)CSc2nc3ccccc3s2)CC1 [CBK293953] | 75.6969
25 | Cc1nn(C)cc1CN(C)CC(=O)Nc1nc2c(s1)CC(C)CC2 (centres unmarked) [CBK306669] | 32.1041
26 | O=C(Cn1cc(C(=O)Nc2ccc(F)cc2)ccc1=O)Nc1nc2c(s1)CCCCC2 [CBK286080] | 90.6015
27 | CC(=O)Nc1c(O)nc(SCC(=O)Nc2ccccc2C(N)=O)[nH]c1=O [CBK268031] | 100.513

Row | Compound | % of control remaining
28 | OC(CNCc1ccc2c(c1)OCO2)COc1ccc(Cl)c(Cl)c1 (centres unmarked) [CBK074649] | 90.6086
29 | CCCc1cc(C(=O)N2CCc3sccc3C2C)[nH]n1 (centres unmarked) [CBK283072] | 78.7868
30 | OC(c1ccc2c(c1)OCO2)C1CCCCC1N1CCCCCC1 (centres unmarked) [CBK022779C] | 21.991
31 | O=C(Cc1coc2ccc3ccccc3c12)NNC(=O)c1ccccc1[N+](=O)[O-] [CBK268763] | 102.261
32 | Cc1ccc(C2(O)CC3CCC(C2)N3C(=O)c2ccncc2)cc1 (centres unmarked) [CBK284609] | 108.14
33 | CSc1ncc(C(=O)N2CCC(N3CCCC(CO)C3)CC2)c(=O)[nH]1 (centres unmarked) [CBK307338] | 45.3248
34 | O=S(=O)(N1CCOCC1)N1CCN(CC(O)COc2ccc3cc(Br)ccc3c2)CC1 (centres unmarked) [CBK268840] | 91.0066
35 | CC12CCCN1CCCN2C(=O)c1c[nH]c2ccccc12 (centres unmarked) [CBK169228] | 85.7724
36 | Nc1nonc1-n1nnc(C(=O)N/N=C/c2nc3ccccc3[nH]2)c1-c1ccccc1 [CBK262815] | 121.343
37 | Cc1ccc(C(=O)NC2CCCCC2)c(N2CCOCC2)n1 [CBK076388] | 96.7291
38 | Cn1cccc1C(=O)N1CCC(OCc2cnc(-c3ccc(S(C)(=O)=O)cc3)cn2)CC1 [CBK172007] | 92.058
39 | CCN1CC(C(=O)N2CC(O)CC2c2cc(F)ccc2F)CC1=O (centres unmarked) [CBK304031] | 31.8181
40 | Cc1cc2ccccc2n2c(=O)n(CCNC(=O)C(C)C)nc12 [CBK282876] | 69.3355
41 | CN(C)CCN(CCc1ccccc1)Cc1ccncc1 [CBK283145] | 100.293
42 | c1ccc(N2CCN(c3nc4cc5c(cc4s3)OCCO5)CC2)cc1 [CBK287499] | 104.741
43 | Cc1c(NC(=O)CN2CCCC(C)C2)ccc2nsnc12 (centres unmarked) [CBK269248] | 126.364
44 | Cc1ccc(NC(=O)CC(=O)NCCN2CCOCC2)cc1 [CBK262179] | 97.7653
45 | CCNC(=O)c1ccccc1NC(=O)C(C)Oc1ccccc1 (centres unmarked) [CBK269933] | 99.5146
46 | CCSc1nc2ccccc2n1CC(=O)O [CBK262059] | 102.741
47 | c1ccc(CCN2CCCN(c3ccnc(OCCN4CCOCC4)n3)CC2)nc1 [CBK083813] | 98.7363
48 | O=C(O)c1cc(-n2c(S)nnc2-c2ccncc2)ccc1Cl [CBK268989] | 90.5718
49 | Nc1ncc2ncn([C@@H]3O[C@H](CO)[C@H](O)C3O)c2n1 (some centres unmarked) [CBK201318] | 123.793
50 | CC(C)(C)c1ccnc(N[C@H]2CO[C@H]3[C@@H]2OC[C@@H]3NCc2ccccn2)n1 [CBK289524] | 109.503
51 | COc1ccc(C(=O)NCCCSc2nc(C(C)(C)C)cc(C(F)(F)F)n2)cc1 [CBK268690] | 102.539
52 | NC(=O)CCCN1CC[C@H]2c3c(cccc3C(N)=O)CC[C@H]21 [CBK007883] | 69.3828
53 | O=C(O)CNC(=O)CNC(=O)C12CC3CC(CC(C3)C1)C2 [CBK287083] | 98.019
54 | CCOc1ccc2nc(SCCN3CCOCC3)sc2c1 [CBK005888] | 59.5682

Row | Compound | % of control remaining
55 | O=C1NCC2(CCCN(Cc3ccc(F)cc3)C2)Oc2ccccc21 (centres unmarked) [CBK284857] | 87.531
56 | Cc1nc2ccccn2c1CN1CCC(Oc2ccc(F)cc2)CC1 [CBK281803] | 80.6475
57 | COc1ccc(CCNC(=O)N2CCN(c3ccccc3)CC2)cc1 [CBK155199] | 107.263
58 | S=C(Nc1ccccc1)N(Cc1ccccc1)Cc1ccncc1 [CBK267991] | 70.0021
59 | CCOc1ccc(N2C(=O)CC(Nc3cc(C(=O)O)ccc3C)C2=O)cc1 (centres unmarked) [CBK296651] | 103.451
60 | CCN(CC)C(=O)c1sccc1NS(=O)(=O)Cc1ccccc1[N+](=O)[O-] [CBK050396] | 126.605
61 | CC1=NN(c2nc(-c3ccc(Br)cc3)cs2)C(=O)C1/N=N/c1ccccc1C(=O)O (centres unmarked) [CBK262440] | 95.9854
62 | Cc1nc(COc2ccc(Cl)cc2)sc1C(=O)N1CCCCC1C(=O)O (centres unmarked) [CBK304233] | 60.2433
63 | CC(Cc1c[nH]c2ccccc12)NC(=N)NC(=N)N (centres unmarked) [CBK268251C] | 69.1949
64 | COc1ccccc1NC(=O)Cn1c(=O)oc2cc(Cl)ccc21 [CBK269344] | 98.5761
65 | COc1ccccc1CC(=O)Nc1ccc(-c2nnc(-c3ccc(C)cc3)o2)cc1 [CBK268329] | 55.2934
66 | CN1CCOC(CNCc2ccc(OCC(N)=O)cc2)C1 (centres unmarked) [CBK304830] | 57.1463
67 | Cc1ccc(CNC(=O)Cc2ccc(-c3ccc(CN4CCC(C)CC4)cc3)nc2)cc1F [CBK158402] | 77.5116
68 | CC(C)(C)c1ccc(O)c(NC(=S)NC(=O)c2cccc(OCc3ccccc3)c2)c1 [CBK269018] | 82.3243
69 | COc1ccc(Nc2nc(N)nc(CSC(=S)N3CCN(C)CC3)n2)cc1 [CBK265232] | 88.5009
70 | COCC1CN(C(=O)Nc2nnc(Cc3ccc(C)cc3)s2)CCO1 (centres unmarked) [CBK306278] | 52.9461
71 | O=C(c1ccccc1)N1CCc2[nH]nc(-c3ccccc3)c2C1 [CBK287904] | 97.8831
72 | Nc1ncc(-c2ccc(C(=O)N3CCOCC3)cc2)nc1C(=O)NCc1ccc(O)cc1 [CBK149161] | 104.097
73 | CN(Cc1nc(-c2cccnc2)no1)S(=O)(=O)c1ccc2ccccc2c1 [CBK267385] | 84.8035
74 | Nc1ncc(-c2cccc(-c3ccccc3)c2)nc1NCc1cccnc1 [CBK063491] | 156.584
75 | C[C@H]1CN2CCCC2CN1Cc1cccc(F)c1F (some centres unmarked) [CBK285454] | 61.3462
76 | CCOc1cc(C2CC(=O)NC(SCC(=O)Nc3cccc(C(F)(F)F)c3)=C2C#N)ccc1O (centres unmarked) [CBK265778] | 64.3076
77 | C/C(N)=C(/C#N)C(NC(=O)C1CCCCC1)(C(F)(F)F)C(F)(F)F [CBK267902] | 95.0828
78 | O=C1N[C@H]2CCCN(C(=O)c3cc(=O)[nH]c(=O)[nH]3)[C@H]2C/C=C/CCOc2ccccc21 [CBK292065] | 79.6292
79 | Nc1ccc2ccc(-c3ccsc3)nc2n1 [CBK067624] | 93.0736
80 | Cc1csc(C(C)NC(=O)c2cccnc2NCc2ccc3c(c2)OCO3)n1 (centres unmarked) [CBK153425] | 79.2496
